From the RNAGym collection of RNA variant scans (doi:10.7554/elife.90254)
The source gives no read counts; variants with many changes may rest on few reads.

B1: OR4K15 (parent)
chain: GUUAACGGUCAUAGGCCAUGGAAACUAGGAGCACCAUUUCGCUGCCAGUGAAGAAAUGAACAAAGAAAAUCUGGGCCAGGCAGGCAUCAAAAGAAAUAGUCUUGCGCUCAACCAGAAAGUCUGUAAUCAUUUUAAGGGUA

Variants of: B1
Experiment: self-cleavage, relative activity (ratio to wild type); higher = more cleavage; in vitro, sequencing; the parent is a self-cleaving ribozyme

Variant | self-cleavage
GUUAACGGUCAUAGGCCAUGGAAACUAGGAGCACCAUUUCGCUGCCGGUGAAGAAGUGAACAAAGAAAAUCUGGGCCAGGCAGGCAUCAAAAGAAAUAGUCUUGCGCUCAACCAGAAGGUCUGUAAUCAUUUUAAGGGUA [A47G A56G A118G] | 0.2
GUUAACGGUCAUAGGCCAUGGAAACUAGGAGCACCAUUUCGCUGCCGGUGAAGAAAUGAACAGAGGAAAUCUGGGCCAGGCAGGCAUCAAAAGAAAUAGCCUUGCGCUCAACCAGAAAGACUGUAGUCAUUUUAAGGGUA [A47G A63G A66G U100C U120A A126G] | 2.26
GUUAACGGUCAUAGGCCAUGGAAACUAGGAGCACCAUUUCGCUGCCGGUGGAGAAAUGAACAAAGAAGAUCUGGGCCAGGCGGGCAUCAAAAGAAAUAGUCUUGCGCUCAACCAGAAAGUCUGUAAUCAUUUUAAGGGUA [A47G A51G A68G A82G] | 0.32
GUUAACGGUCAUAGGCCAUGGAAACUAGGAGCACCAUUUCGCUGCCGGUGAGGAAACGAACAAAGAAAAUCUGGGCCAGGCAGGCAUCAAAAGAAAUAGUCUUGCGCUCAACCAGAAGGUCUGUAAUCAUUUUAAGGGUA [A47G A52G U57C A118G] | 0.22
GUUAACGGUCAUAGGCCAUGGAAACUAGGAGCACCAUUUCGCUGCCCGUGAAGAAAUGAACAAAGUAAAUCUGGGCCAGGCAGGCAUCAAAAGAAAUAGCCUUGCGCUCAACCAGAAUGUCUGUAAUCAUUUUAAGGGUA [A47C A66U U100C A118U] | 1.26
GUUAACGGUCAUAGGCCAUGGAAACUAGGAGCACCAUUUCGCUGCCGGUGAAGAAAUGAGCAAAGAAAAUCUGGGCCAGGCAGGCAACAAAAGAAAUAGUCUUGCGCUCAACCAGAUAGUCUGUAAUCAUUUUAAGGGUA [A47G A60G U87A A117U] | 0.47
GUUAACGGUCAUAGGCCAUGGAAACUAGGAGCACCAUUUCGCUGCCGGUGAAGAAAUGAGCAAAGAAAAUCUGGGCCAGGCAGGCAUCAAAAGAAAUAGUCUUGCGCUCAACCAGAAGGUCUGUGAUCAUUUUAAGGGUA [A47G A60G A118G A125G] | 0.02
GUUAACGGUCAUAGGCCAUGGAAACUAGGAGCACCAUUUCGCUGCCGGUGAAGAAGUGAACAAAGAGAAUCUGGGCCAGGCAGGCAUCAAAAGAAAUAGUCUUGCGCUCAACCAGAAAGUCUGUAAUCAUUUUAAGGGUA [A47G A56G A67G] | 1.99
GUUAACGGUCAUAGGCCAUGGAAACUAGGAGCACCAUUUCGCUGCCGGUGAAGAAUUGAACAAAGAAAAUCUGGGCCAGGCAGGCAUCAAAAGAAAUAGUCUUGCGCUCAACCAGAAAGUCUGUAAUCACUUUAAGGGUA [A47G A56U U130C] | 0.33
GUUAACGGUCAUAGGCCAUGGAAACUAGGAGCACCAUUUCGCUGCCCGUGAAGAAAUGAACAAAGAAAAUCUGGGCCAGGCAGGCAUCAAAAGGAAUAGUCUUGCGCUCAACCAGGAAGUCUGUAAUCAUUUUAAGGGUA [A47C A94G A116G] | 0.61
GUUAACGGUCAUAGGCCAUGGAAACUAGGAGCACCAUUUCGCUGCCGGUGAAGAAAUGAGCAAAGAAAAUCUGGGCCAGGCAGGCAUCAAAAGAAAUAGUCCUGCGCUCAACCAGAAAGUCUGUAAUCAUCUUAAGGGUA [A47G A60G U102C U131C] | 1.22
GUUAACGGUCAUAGGCCAUGGAAACUAGGAGCACCAUUUCGCUGCCGGUGAAGAAAUGAUCAAAGAAAAUCUGGGCCAGGCAGGCAUCAAAAGAAAUAGUCUUGCGCUCAACCAGAAAGUCUGUAAUCACUUUAAGGGUA [A47G A60U U130C] | 1.42
GUUAACGGUCAUAGGCCAUGGAAACUAGGAGCACCAUUUCGCUGCCGGUGAAGAAAUGAACAGAGAAAAUCUGGGCCAGGCAGGCAUCAAAAGAAAUAGUCUUGCGCUCAACCAGGAAGUCUGUAGUCAUUUUAAGGGUA [A47G A63G A116G A126G] | 0.61
GUUAACGGUCAUAGGCCAUGGAAACUAGGAGCACCAUUUCGCUGCCGGUGAAGGAAUGAACAAAGAAAAUCUGGGCCAGGCAGGCAUCAAAAGAAAUAGUCUUGCGCUCAACCAGAGAGUCUGUAAUCAUUUUAAGGGUA [A47G A54G A117G] | 1.75
GUUAACGGUCAUAGGCCAUGGAAACUAGGAGCACCAUUUCGCUGCCGGUGAAGAAAUGGACAAAAAAAAUCUGGGCCAGGCAGGCAUCAAAAGAAAUAGUCUUGCGCUCAACCAGAAAGUCUGUAAUCAUUUUAAGGGUA [A47G A59G G65A] | 0.91
GUUAACGGUCAUAGGCCAUGGAAACUAGGAGCACCAUUUCGCUGCCCGUGAAGAAAUGAUCAAUGAAAAUCUGGGCCAGGCAGGCAUCAAAAGAAAUAGUCUUGCGCUCAACCAGAAAGUCUGUAAUCAUUUUAAGGGUA [A47C A60U A64U] | 1.66
GUUAACGGUCAUAGGCCAUGGAAACUAGGAGCACCAUUUCGCUGCCGGUGAAGAGAUGAACAAAGAAAAUCUGGGCCAGGCAGGCAUCAAAAGAAAUAGUCUCGCGCUCAACCAGAAAGUCUGUAAUCAUUUUAAGGGUA [A47G A55G U103C] | 0.27
GUUAACGGUCAUAGGCCAUGGAAACUAGGAGCACCAUUUCGCUGCCGGUGAAGAGAUGGACAAAGAAAAUCUGGGCCAGGCAGGCAUCAAAAGAAAUAGUCUUGCGCUCAACCAGAAAGUCUGUAAUCAUUUUAAGGGUA [A47G A55G A59G] | 0.42
GUUAACGGUCAUAGGCCAUGGAAACUAGGAGCACCAUUUCGCUGCCGGUGAAGGAAUGAACAAAGAAAAUCUGGGCCAGGCAGGCAUCAAAAGAAAUAGUCUUGCGCUCAACCAGAAAGUCUGUAAUCUUUUUAAGGGUA [A47G A54G A129U] | 0.21
GUUAACGGUCAUAGGCCAUGGAAACUAGGAGCACCAUUUCGCUGCCGGUGGAGAAAUGAACAAAGAAAAUCUGGGCCAGGCAGGCAUCAAAAGAAAUAGUCUUGCGCUCAACCAGAAAGUCUGUAAUCAUUUUAAGGGAA [A47G A51G U139A] | 0.68
GUUAACGGUCAUAGGCCAUGGAAACUAGGAGCACCAUUUCGCUGCCGGUGGAGGAAUGAACAAAGAAAAUCUGGGCCAGGCAGGCAUCAAAAGAAAUAGUCUUGCGCUCAACCAGAAAGUCUGUAAUCAUUUUAAGGGUA [A47G A51G A54G] | 2.03

Variant | self-cleavage
GUUAACGGUCAUAGGCCAUGGAAACUAGGAGCACCAUUUCGCUGCCGGUGAUGAAAUGAACAAAGAAAAUCUGGGCCGGGCAGGCAUCAGAAGAAAUAGUCUUGCGCUCAACCAGAAAGCCUGUAAUCAUUUUAAGGGUA [A47G A52U A78G A90G U120C] | 0.11
GUUAACGGUCAUAGGCCAUGGAAACUAGGAGCACCAUUUCGCUGCCCGUGAAGAAAUGAACUAAGAAGAUCUGGGCCAGGCAGGCAUCAAAAGAAAUAGUCUUGCGCUCAACCAGAAAGUCUGUAAUCAUUUUAAGGGUA [A47C A62U A68G] | 1.32
GUUAACGGUCAUAGGCCAUGGAAACUAGGAGCACCAUUUCGCUGCCCGUGAAGAAAUGAACAAAGAAAAUCUGGGCCAGGCAGGCAUCAAAAGAAAUAGCCUGGCGCUCAACCAGAAAGUCUGUAAUCAUUUUAAGGGUA [A47C U100C U103G] | 0.01
GUUAACGGUCAUAGGCCAUGGAAACUAGGAGCACCAUUUCGCUGCCGGUGGAGAAAUGAACAAAGAAAAUCUGGGCCAGGCAGGCAUCAAAAGAAAUAGUCUUGCGCUCAUCCUGAAAGUCUGUAAUCAUUUUAAGGGUA [A47G A51G A111U A114U] | 0.02
GUUAACGGUCAUAGGCCAUGGAAACUAGGAGCACCAUUUCGCUGCCGGUGAAGGAAUGAACAAAGAAGAUCUGGGCCAGGCAGGCAUCGAAAGAAAUAGUCUUGCGCUCAACCAGAUAGUCUGUAAUCAUUUUAAGGGUA [A47G A54G A68G A89G A117U] | 1.14
GUUAACGGUCAUAGGCCAUGGAAACUAGGAGCACCAUUUCGCUGCCGGUGAGGAAAUGGACAAAGAAAAUCUGGGCCAGGCAGGCAUCAAAAGAAAUAGUCUUGCGCUCAACCAGAAAGUCUGUAAUCAUUUUAAGGGUA [A47G A52G A59G] | 0.94
GUUAACGGUCAUAGGCCAUGGAAACUAGGAGCACCAUUUCGCUGCCGGUGAAGGAAUGAACAAAGAAAAUCUGGGCCAGGCAGGCAUCAAAAGAAGUAGUCUUGCGCUCAACCAGAAAGCCUGUAAUCAUUUUAAGGGUA [A47G A54G A96G U120C] | 0.93
GUUAACGGUCAUAGGCCAUGGAAACUAGGAGCACCAUUUCGCUGCCGGUGAAGGAAUGAACAAAGAAAAUCUGGGCCAGGCAGGCAUCAAAAGAAAUAGUCUUGCGCUCAACCAGAAAGUCUGUAGUCAUUUUAAGGGUA [A47G A54G A126G] | 0.21
GUUAACGGUCAUAGGCCAUGGAAACUAGGAGCACCAUUUCGCUGCCGGUGAAGAAAUGGGCAAAGAAAAUCUGGGCCAGGCAGGCAUCAAAAGAAAUAGUCUUGCGCUCAACCAGAAAGUCUGUAAUCAUUUUAAGGGUA [A47G A59G A60G] | 0.79
GUUAACGGUCAUAGGCCAUGGAAACUAGGAGCACCAUUUCGCUGCCGGUGAAGGAAUGAACAAAGAAAAUCUGGGCCAGGCAGGCAUCAAAAGAGAUAGUCUUGCGCUCAACCAGAAAGUCUGUAAUCAUUUUAAGGGUA [A47G A54G A95G] | 1.92
GUUAACGGUCAUAGGCCAUGGAAACUAGGAGCACCAUUUCGCUGCCGGUGAGGAAAUGAACAAAGAAAAUCUGGGCCAGGCGGGCAUCAAAAGAAAUAGUCUUGCGCUCAACCAGAAAGUCUGUAAUCAUCUUAAGGGUA [A47G A52G A82G U131C] | 0.24
GUUAACGGUCAUAGGCCAUGGAAACUAGGAGCACCAUUUCGCUGCCCGUGAAGAAAUUAACAAAGAAAAUCUGGGCCAGGCAGGCAUCAAAAGAAAUAGUCCUGCGCGCAACCAGAAAGUCUGUAAUCAUUUUAAGGGUA [A47C G58U U102C U108G] | 0.01
GUUAACGGUCAUAGGCCAUGGAAACUAGGAGCACCAUUUCGCUGCCGGUGAAGAAGGGAACAAAGAAAAUCUGGGCCAGGCAGGCAUCAAAAGAAAUAGUCUUGCGCUCAACCAGAAAGUCUGUAAUCAUCUUAAGGGUA [A47G A56G U57G U131C] | 0.43
GUUAACGGUCAUAGGCCAUGGAAACUAGGAGCACCAUUUCGCUGCCCGUGAAGAAAUGAACAAAGAAGAUCUGGGCCAGGCAGGCGUCAAAAGAAAUAGUCUUGCGCUCAACCUGAAAGUCUGUAAUCAUUUUAAGGGUA [A47C A68G A86G A114U] | 0.12
GUUAACGGUCAUAGGCCAUGGAAACUAGGAGCACCAUUUCGCUGCCGGUGAAGAAAUGAACUAAGAAAAUCUGGACCAGGCAGGCAUCAAAAGAAAUAGUCUUGCGCUCAACCAGAAAGUCUGUAAUCAUUUUAAGGGUA [A47G A62U G75A] | 0.08
GUUAACGGUCAUAGGCCAUGGAAACUAGGAGCACCAUUUCGCUGCCGGUGAAGAAAUGGACAAUGAAAAUCUGGGCCAGGCAGGCAUCAAAAGGAACAGCCUUGCGCUCAACCAGAAAGUCUGUAAUCAUUUUAAGGGUA [A47G A59G A64U A94G U97C U100C] | 1.72
GUUAACGGUCAUAGGCCAUGGAAACUAGGAGCACCAUUUCGCUGCCGGUGAAGAAAUGGACAGAGAAAAUCUGGGCCAGGCAGGCAUCAAAAGAAGUAGUCUUGCGCUCAACCAGAAAGUCUGUAAUCAUUUUAAGGGUA [A47G A59G A63G A96G] | 0.79
GUUAACGGUCAUAGGCCAUGGAAACUAGGAGCACCAUUUCGCUGCCGGUGAAGAAAUGAACGAAGAAAAUCUGGGCCAGGCAGGCAUCAAAAGAAAUAGUCUUGCGCCCAACCAGAAAGUCUGUAAUCAUUUUAAGGGUA [A47G A62G U108C] | 0.03
GUUAACGGUCAUAGGCCAUGGAAACUAGGAGCACCAUUUCGCUGCCGGUGAAGAAAUGAACAGAGAAAAUCUGGGCCAGGCAGGCAUCAAAAGAAAUAGUCUUGCGCUCGACCAGAAAGUCUGUAAUCAUUUUAAGGGUA [A47G A63G A110G] | 0.09
GUUAACGGUCAUAGGCCAUGGAAACUAGGAGCACCAUUUCGCUGCCGGUGAAGAAAUGAACGAAGAAAAUCUGGGCCUGGCAGGCAUCAAAAGAAAUAGUCUUGCGCUCAACCAGAAAGUCUGUAAUCAUUUUAAGGGUA [A47G A62G A78U] | 0.24
